Values marked as one replicate rest on one cluster of the flow cell; about a third of the high ones do not repeat.
Test system: ATP
Test: switch fluorescence ratio, 500 uM ATP over buffer (Cy3 cluster intensity, sum of 5 cycles each) (fold (ratio)); higher = stronger signal-on switching upon ATP binding; sequences stand for … in TCGTCGGCAGCGTCAGATGTGTATAAGAGACAGTTTTTTTTTTTTTTTTTTTTTTTTT…TC
Conditions: aptamer strand: ATP DNA aptamer (quencher-CACCTGGGGGAGTATTGCGGAGGAAGG + anchor), 100 nM annealed; ATP concentration: 500 uM; one replicate
How it was run: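 Exposure to 500 uM ATP lasted 15 min at 22 °C before imaging, and a selection-buffer image was taken beforehand, for Cy3-labelled switching-strand clusters on a modified Illumina MiSeq flow-cell annealed to 100 nM quencher-labelled ATP aptamer. Five buffer/ATP cycles were run with NaOH stripping and re-annealing between them. The fluorescence ratio per cluster is summed target-cycle over summed buffer-cycle Cy3 intensity, averaged per switch-domain sequence. Clusters outside 100-1000 RFU were excluded.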

TCGGTGACGA
switch fluorescence ratio: 1.06

AGGGTTCATA
switch fluorescence ratio: 1.03

CGCGGATCAT
switch fluorescence ratio: 1.07

GAGTTATTAA
switch fluorescence ratio: 0.98

ACTGAGCAGT
switch fluorescence ratio: 1.08

GAATTTTAAG
switch fluorescence ratio: 0.956

GCAGACGAGG
switch fluorescence ratio: 1.01

AGCCTGTCCT
switch fluorescence ratio: 1.04

CGTAGAAAAA
switch fluorescence ratio: 1.01

GTGTGTTGTG
switch fluorescence ratio: 0.961

CCAAACCGTG
switch fluorescence ratio: 1.07

TGGTTTCGGC
switch fluorescence ratio: 1

GACTGAGCCT
switch fluorescence ratio: 1.06

TTGGTGGCC
switch fluorescence ratio: 1.01

CGCCCATAGT
switch fluorescence ratio: 1.09

ATATCCTGTT
switch fluorescence ratio: 1.01

GCACAGAGGA
switch fluorescence ratio: 1.11

CAGCTTGATT
switch fluorescence ratio: 1.01

TCGTGTGGAT
switch fluorescence ratio: 1.01

TTGAGTTGCT
switch fluorescence ratio: 1.03

TTCAACTAAG
switch fluorescence ratio: 1.06

AGGAACTTTG
switch fluorescence ratio: 0.979

TGTTTTTCAA
switch fluorescence ratio: 0.973

AACTTTGCCA
switch fluorescence ratio: 1.01

AATTGGACGG
switch fluorescence ratio: 0.966

TTCGTACCTC
switch fluorescence ratio: 1.06

TTGGGCCCCG
switch fluorescence ratio: 1.02

ATCGCGTCAA
switch fluorescence ratio: 1.06

GAGGTGTGCT
switch fluorescence ratio: 0.98

CGAGTATTGT
switch fluorescence ratio: 1.03

AGGTTTCAGC
switch fluorescence ratio: 0.963

GTTGCGAATA
switch fluorescence ratio: 1.04

CCGGTATGCG
switch fluorescence ratio: 0.993

GACGTACGGG
switch fluorescence ratio: 1.48

ATTAAGGTTG
switch fluorescence ratio: 0.996

CGATGTGATT
switch fluorescence ratio: 1.05

TGGGGATTCA
switch fluorescence ratio: 1.02

CGTTCGACGG
switch fluorescence ratio: 0.971

TCTTATTGAC
switch fluorescence ratio: 1.05

TAGCAGTGG
switch fluorescence ratio: 1.08

CTGCAATAAA
switch fluorescence ratio: 3.61

TACGCTCTTA
switch fluorescence ratio: 1.01

CCAAAGTAGC
switch fluorescence ratio: 1.4

GCGTGTCGGA
switch fluorescence ratio: 0.999

AACTGCTGAC
switch fluorescence ratio: 1.17

ACCTATCTCT
switch fluorescence ratio: 1.05

CAGCACCGGG
switch fluorescence ratio: 1.07

CAGAGCCGTC
switch fluorescence ratio: 1.01

AAGAGACCG
switch fluorescence ratio: 1.08

TGCTAGTGGG
switch fluorescence ratio: 0.959

AGGTGACCAC
switch fluorescence ratio: 1.04

AATCGAGCAT
switch fluorescence ratio: 1.08

ATCGCATGCA
switch fluorescence ratio: 1.03

CGGTTTGTCA
switch fluorescence ratio: 0.982

AGCAACGGGC
switch fluorescence ratio: 1.03

GCACTATTAC
switch fluorescence ratio: 1.35

TGTTTACCGT
switch fluorescence ratio: 0.995

GTTAATAATT
switch fluorescence ratio: 1.03

TCGGTTCCGA
switch fluorescence ratio: 1

GCGCGGAAGT
switch fluorescence ratio: 1.02

TATGCTCGCA
switch fluorescence ratio: 1.03

GCCAACTAGG
switch fluorescence ratio: 1.01

TGTCCGCAGG
switch fluorescence ratio: 1.08

CAAACGTCGC
switch fluorescence ratio: 1.05

ACACGGAAAG
switch fluorescence ratio: 1.06

CCACTAGCGG
switch fluorescence ratio: 1.08

TCGATTTCGT
switch fluorescence ratio: 0.996

AGAATGGCCT
switch fluorescence ratio: 0.999

AAATACGCCG
switch fluorescence ratio: 1.02

GAGGGACCAC
switch fluorescence ratio: 1.02

CAACCGTATG
switch fluorescence ratio: 0.987

AGAGCTTAAG
switch fluorescence ratio: 0.975

TTGAGGTGTT
switch fluorescence ratio: 1.05

TATGCTATGG
switch fluorescence ratio: 1.01

TAAATCGCGT
switch fluorescence ratio: 0.999

GCCGCGCG
switch fluorescence ratio: 1.05

AGAATTCTTG
switch fluorescence ratio: 1

GTTGTGCCGG
switch fluorescence ratio: 1.09

ATTTGGGCGG
switch fluorescence ratio: 0.952

ACGTTTGCAC
switch fluorescence ratio: 1.05

GGCTCAGTCG
switch fluorescence ratio: 0.988

GCATCGAAAA
switch fluorescence ratio: 1.02

GGCGGCAGTG
switch fluorescence ratio: 1.01

TAACGTCGGA
switch fluorescence ratio: 0.946

GGCAAGGGGA
switch fluorescence ratio: 1.04

GGGGTGGCTT
switch fluorescence ratio: 0.996

CTGACAATCG
switch fluorescence ratio: 1.02

GCGGTAAGCT
switch fluorescence ratio: 1

GTTACTTTTC
switch fluorescence ratio: 0.96

GCGGATCTCA
switch fluorescence ratio: 1.04

CGTATGTGAC
switch fluorescence ratio: 0.945

TCATCTCGTC
switch fluorescence ratio: 1.05

CCTGAGAGT
switch fluorescence ratio: 1.04

AAAAGCAGAG
switch fluorescence ratio: 0.994

GCCGTATAGA
switch fluorescence ratio: 1.03

TGGGCTGGTG
switch fluorescence ratio: 1

GGGTGGCCAT
switch fluorescence ratio: 1

TATCCTTGTT
switch fluorescence ratio: 0.978

TGAACGTGAG
switch fluorescence ratio: 1.02

TCGTGATTCC
switch fluorescence ratio: 1.08

GTTTTCAGCT
switch fluorescence ratio: 0.963

GCATTTTTGT
switch fluorescence ratio: 0.989

AGAAGGACGT
switch fluorescence ratio: 1.01

GCAAGGGAAG
switch fluorescence ratio: 1.01

AGCACGGCAT
switch fluorescence ratio: 1.06

TTAGTGAGTT
switch fluorescence ratio: 1.02

GATGCCGACC
switch fluorescence ratio: 1.05

CGTGAAGGGC
switch fluorescence ratio: 0.957

AAAGGTATTA
switch fluorescence ratio: 0.942

AGATTAATTA
switch fluorescence ratio: 1.04

TGCGTGAGGA
switch fluorescence ratio: 1.02

TTCCGAAGTC
switch fluorescence ratio: 2.66

TCGAGGTGTT
switch fluorescence ratio: 1

CGCCATCGG
switch fluorescence ratio: 1.03

TTAACCTTCA
switch fluorescence ratio: 2.92

GCGCTTATTT
switch fluorescence ratio: 0.981

ACGTGCCTTG
switch fluorescence ratio: 1.02

ATGATCTATC
switch fluorescence ratio: 0.971

CGACGGAGCT
switch fluorescence ratio: 1.87

GTTGAGCTTG
switch fluorescence ratio: 0.998

CGACGCGAAG
switch fluorescence ratio: 2.76

TTAGAGCTTA
switch fluorescence ratio: 1.16

CACTTCCGGC
switch fluorescence ratio: 1.44

GTCACAGTTA
switch fluorescence ratio: 1.04

GGATATAATT
switch fluorescence ratio: 1.01

GGGTGGGCGA
switch fluorescence ratio: 0.971

CGCTATCCCT
switch fluorescence ratio: 1.28

CATCGGGCCC
switch fluorescence ratio: 0.988

GTGTAATGGA
switch fluorescence ratio: 0.963

AGGGGTCTT
switch fluorescence ratio: 1

CGTTTCACAA
switch fluorescence ratio: 1.03

TGGCTGAGCA
switch fluorescence ratio: 1.04

CAGATCCACT
switch fluorescence ratio: 0.988

CCAGGGGATG
switch fluorescence ratio: 1.06

TTGAGGCAG
switch fluorescence ratio: 0.994

CCCGCCTGTA
switch fluorescence ratio: 1.1

GAATTACTAA
switch fluorescence ratio: 1.06

TTGAGTTATG
switch fluorescence ratio: 0.967

CCCTGATTT
switch fluorescence ratio: 1.01

TACGCTCCC
switch fluorescence ratio: 1.15

CATATATAAA
switch fluorescence ratio: 0.979

GCACCCCAGC
switch fluorescence ratio: 1.13

AATATGACAT
switch fluorescence ratio: 1

GCTAGCGAAA
switch fluorescence ratio: 0.973

TTACGACTTT
switch fluorescence ratio: 1.04

AATGCTTCCC
switch fluorescence ratio: 1.35

CTAGGATTTA
switch fluorescence ratio: 0.991

AGGTGTTT
switch fluorescence ratio: 1.06

CGTTAGACGT
switch fluorescence ratio: 1.03

CCAAACGTTA
switch fluorescence ratio: 1.16

TTAGTGGGT
switch fluorescence ratio: 0.988

ACACGCTAAC
switch fluorescence ratio: 2.19

ACTGGTTCGA
switch fluorescence ratio: 0.955

CCGGTTCGGC
switch fluorescence ratio: 1.03

TATGGTCAGG
switch fluorescence ratio: 1

AAAGGAAAAA
switch fluorescence ratio: 1.01

TGGTGCGCGT
switch fluorescence ratio: 1.11

GGCTGGCAAG
switch fluorescence ratio: 1.02

GGTAAGTATG
switch fluorescence ratio: 0.991

CATCATCATA
switch fluorescence ratio: 1.05

GACCCTCACG
switch fluorescence ratio: 1.06

ATAGTATCCC
switch fluorescence ratio: 1.01

AACCCATCCT
switch fluorescence ratio: 1.73

GTGATACTGC
switch fluorescence ratio: 1.25

TGAAAAACT
switch fluorescence ratio: 1.05

TCAATTAATG
switch fluorescence ratio: 0.952

CACCGGCAAC
switch fluorescence ratio: 3.6

GCAATATTTA
switch fluorescence ratio: 1.25

TTTCATTTT
switch fluorescence ratio: 1.01

CAAGGATTGC
switch fluorescence ratio: 1.01

ATACCGAGCT
switch fluorescence ratio: 1.12

CGGAGATTTC
switch fluorescence ratio: 1.13

TAGATTGCGT
switch fluorescence ratio: 1.02

GCTCGCACTG
switch fluorescence ratio: 1.02

TGAAGTCTAC
switch fluorescence ratio: 0.999

TCTCTAATGT
switch fluorescence ratio: 1.02

TACATGGTTA
switch fluorescence ratio: 0.975

TAGCTTAAGC
switch fluorescence ratio: 0.983

TAGCCGAATG
switch fluorescence ratio: 0.987

TAGGGTTTAC
switch fluorescence ratio: 0.916

CTGTCCATAG
switch fluorescence ratio: 1.05

TACAAACGGA
switch fluorescence ratio: 1.29

CAGCATATA
switch fluorescence ratio: 1.49

GTGTCTGACG
switch fluorescence ratio: 0.995

ATTTTAATTA
switch fluorescence ratio: 0.996

GGGAAGTAGG
switch fluorescence ratio: 1

GGTCGTTATC
switch fluorescence ratio: 0.982

TCATAAGCGG
switch fluorescence ratio: 1

TAAACATCTC
switch fluorescence ratio: 1.02

GCCATAAAAG
switch fluorescence ratio: 0.962

TTTGACGTGG
switch fluorescence ratio: 0.945

GTAGCACAGA
switch fluorescence ratio: 1.09

CACGCCGTC
switch fluorescence ratio: 0.99

GGCACATTGG
switch fluorescence ratio: 0.95

TCGTTCACCC
switch fluorescence ratio: 1.01

TACATCACAC
switch fluorescence ratio: 1.31

ATTGGGACGC
switch fluorescence ratio: 1.13

GCACAGCGCA
switch fluorescence ratio: 1.05

TTTGACGCAG
switch fluorescence ratio: 1.02

GTGGTCCCGG
switch fluorescence ratio: 0.99

Source: the supplement of paper PMC10126150
